Assay results from publication PMC4336329 (PLoS ONE, 2015).
About 2,200 (0.71%) of roughly 310,000 compounds showed an effect of 50% or more. The effect is printed as a negative number. The list shows a part of the results.

These molecules were tested against human ether-à-go-go-related gene (hERG) potassium channel (human, UniProt Q12809) (assay: primary screen, population patch clamp on CHO cells stably expressing hERG).
Chain of human ether-à-go-go-related gene (hERG) potassium channel (Q12809 whole entry, looked up): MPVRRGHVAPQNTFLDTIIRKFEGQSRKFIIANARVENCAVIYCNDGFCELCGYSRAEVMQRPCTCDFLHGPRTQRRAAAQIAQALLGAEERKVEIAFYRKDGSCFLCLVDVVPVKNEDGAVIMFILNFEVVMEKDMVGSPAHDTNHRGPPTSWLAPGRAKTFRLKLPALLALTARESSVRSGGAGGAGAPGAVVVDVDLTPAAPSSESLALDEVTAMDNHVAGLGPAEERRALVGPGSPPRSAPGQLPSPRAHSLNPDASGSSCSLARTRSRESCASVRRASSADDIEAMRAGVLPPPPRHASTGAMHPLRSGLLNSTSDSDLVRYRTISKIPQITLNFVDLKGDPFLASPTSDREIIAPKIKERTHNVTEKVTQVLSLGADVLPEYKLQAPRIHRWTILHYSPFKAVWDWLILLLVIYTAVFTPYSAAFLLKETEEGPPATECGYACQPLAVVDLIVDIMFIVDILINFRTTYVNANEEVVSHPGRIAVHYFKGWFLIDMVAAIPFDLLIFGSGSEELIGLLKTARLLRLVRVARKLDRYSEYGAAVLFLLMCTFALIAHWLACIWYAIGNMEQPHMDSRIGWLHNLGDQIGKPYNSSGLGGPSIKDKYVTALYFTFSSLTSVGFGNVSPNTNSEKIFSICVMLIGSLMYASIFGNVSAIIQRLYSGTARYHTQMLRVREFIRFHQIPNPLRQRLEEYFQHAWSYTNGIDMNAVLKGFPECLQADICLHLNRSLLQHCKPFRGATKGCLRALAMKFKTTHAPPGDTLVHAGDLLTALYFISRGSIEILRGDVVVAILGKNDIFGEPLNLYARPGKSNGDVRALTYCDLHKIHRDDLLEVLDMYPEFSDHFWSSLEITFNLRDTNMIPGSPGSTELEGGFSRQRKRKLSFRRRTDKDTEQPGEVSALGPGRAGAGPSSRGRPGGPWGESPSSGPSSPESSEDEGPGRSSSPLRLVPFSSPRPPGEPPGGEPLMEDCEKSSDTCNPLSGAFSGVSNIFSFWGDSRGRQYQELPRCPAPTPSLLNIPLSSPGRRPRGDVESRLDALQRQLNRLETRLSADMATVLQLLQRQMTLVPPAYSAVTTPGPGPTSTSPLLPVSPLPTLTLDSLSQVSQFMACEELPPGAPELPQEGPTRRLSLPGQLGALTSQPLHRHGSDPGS

Structure (SMILES) | hERG current change (%, negative = inhibition) at 1uM
Cn1c(-c2ccc3c(c2)OCO3)cnc1NC(=O)CCC(=O)NCCc1ccccc1 | 7.5%
O=C(NCc1ccccc1OC(F)(F)F)C1CCC(=O)N(C2CC2)C1 (stereo not drawn) | 4.78%
O=C(Nc1ccc(S(=O)(=O)NC2=NCCCCC2)cc1)c1ccc(C(F)(F)F)cc1 | -3.67%
Cc1ccc(-n2nnnc2SCC(=O)Nc2ccc3c(c2)COC3=O)cc1C | 12%
CCOC(=O)c1nn(-c2ccccc2)c(=O)cc1OCC(=O)Nc1ccccc1OCC | -1.83%
COc1cc(C2CC(=O)c3c([nH]c(C(=O)OCCOC(C)C)c3C)C2)cc(OC)c1OC (stereo not drawn) | 4.87%
CC1CC2=C(CC1/C=N/NC(N)=S)C(C)(C)CCC2 (stereo not drawn) | -7.01%
Cc1cc(OCC(=O)NC(Cc2ccc(Cl)cc2)C(=O)O)c2c3c(c(=O)oc2c1)CCC3 (stereo not drawn) | 13.8%
CCC(C)CCN1C(N(C)C)=NC[C@@H]1Cc1ccccc1 (stereo partly drawn) | 3.7%
O=C(CCCN1C(=O)/C(=C\c2cccs2)SC1=S)Nc1ccc(C(=O)O)cc1 | 9.15%
N#CC1=C2SCN(c3ccc(F)cc3)CN2C(=O)CC1c1cccc(F)c1 (stereo not drawn) | 8.47%
Cc1ccc(N2C(=O)c3ccc(C(=O)N4CCOCC4)cc3C2=O)cc1C | 9.52%
C#CCOCCOCCOCCNc1nc(N2CCN(C(=O)[C@H]([C@@H](C)CC)n3cc(CCC[NH+]=C(N)N)nn3)CC2)nc(N2CCN(C(=O)[C@H](C)n3cc(CCC[NH+]=C(N)N)nn3)CC2)n1.[Cl-] | 15.3%
COc1ccc(/C=N/NC(=O)C2C(C=C(Cl)Cl)C2(C)C)c(OC)c1 (stereo not drawn) | -2.05%
c1ccc(Nc2ccccn2)cc1 | 12%
NC(=O)CSc1nnc2n(N)c(=O)c3ccccc3n12 | 8.42%
CCC1CCCCN1CCNC(=O)CNS(=O)(=O)c1ccc2nc(C)sc2c1 (stereo not drawn) | 17.4%
O=C1OC(c2ccc3c(c2)OCO3)N(C(=O)c2ccc(Cl)c(Cl)c2)c2ccccc21 (stereo not drawn) | -11.4%
Cn1ccnc1/C(=N\NC(=O)c1ccccc1)c1cccc([N+](=O)[O-])c1 | -14%
COc1ccc(CN(CCNC(=O)CCCCC(=O)NCCN(Cc2ccc(OC)cc2)C(C)C)C(C)C)cc1.Cl | 5.4%
C=CCOCC(O)Cn1c(N2CCCC2)nc2c1c(=O)n(C)c(=O)n2C (stereo not drawn) | 15.2%
O=c1c2ccccc2[nH]c(=S)n1-c1ccc2c(c1)OCO2 | 16.3%

Structure (SMILES) | hERG current change (%, negative = inhibition) at 1uM
O=C(Nc1nnc(-c2ccccc2)o1)c1cc(Cl)sc1Cl | 11.1%
COC(=O)c1ccccc1NC(=O)N1CCN(S(=O)(=O)c2ccc(Cl)cc2)CC1 | 8.85%
Cc1ccc(N2NC(=O)/C(=C/c3ccc(-c4ccc(Cl)c(C(=O)O)c4)o3)C2=O)cc1C | 6.3%
Cc1ccc(OCCCC(=O)Nc2ccc(S(N)(=O)=O)cc2)cc1 | 9.66%
CCOC(=O)N1CCc2c(sc3c2c(=O)n(Cc2ccccc2)c(=O)n3CC(=O)NCC2CCCO2)C1 (stereo not drawn) | 16.6%
O=C(NC(=S)NCc1cccnc1)c1cc2ccccc2o1 | 13.9%
Cc1nc2c3cc(Cl)ccc3n(CCN3CCOCC3)c2s1 | -5.57%
Brc1ccc(COc2ncnc3ccccc23)cc1 | 8.13%
O=C(Nc1scc(-c2ccc(Br)cc2)c1C(=O)O)c1ccccc1F | 23.3%
COc1ccc(-c2cc(C(=O)Nc3c(C)nn(Cc4ccccc4)c3C)no2)cc1 | 6.71%
Clc1ccc(NNc2ccnc3cc(Cl)ccc23)cc1 | 7.36%
CCOC(=O)c1c(NC(=O)Cn2nc(C(F)(F)F)cc2C)sc2c1CCC2 | -8.44%
CN1CCN(Cc2c(O)ccc3c2oc(=O)c2ccccc23)CC1 | 8.61%
Cc1c(CNCCc2ccccc2Cl)c(C(=O)O)c(C)n1-c1ccccc1 | 12.6%
Cc1ccc(S(=O)(=O)Nc2ccc3c(c2)nc(CN2CCCC2)n3C)cc1 | -9.18%
CC(=NCCc1c(C)[nH]c2ccc(C)cc12)C1=C(O)CC(c2ccccc2)CC1=O (stereo not drawn) | 14.9%
Cc1ccc(N=Cc2sc(O)c3ccccc23)c(C)c1 | 24.8%
CC1CCCCN1Cc1ccc(N(C)C)cc1 (stereo not drawn) | 11.4%
COc1ccc(NC(=O)CSc2nnnn2-c2ccccc2F)cc1 | 10.9%
COc1ccccc1-c1cc(C(=O)NCc2ccccc2)no1 | -0.335%
CCOC(=O)c1sc(NC(=O)C2CC(=O)N(c3ccc(C)cc3)C2)nc1C (stereo not drawn) | 3.68%
Nc1n[nH]c2c1C1(CCCC1)Cc1ccccc1-2 | 15.1%

Structure (SMILES) | hERG current change (%, negative = inhibition) at 1uM
O=C(Nc1ccc(Cl)cc1)Nc1ccc(Br)cn1 | 8.2%
COC(=O)c1ccc(CO/N=C(\NC(C)=O)c2nonc2NC(C)=O)cc1 | 11.1%
CCN(CC)CCCNC(=O)c1cc2c(=O)n(C)c3ccccc3c2n1C | 2.21%
O=C(CNC(=O)c1cccs1)c1ccc(Cl)cc1 | 13.2%
CC(CP(=O)(O)O)NC(=O)Cc1ccccc1 (stereo not drawn) | 14.2%
Clc1ccc(CNc2cnccn2)cc1 | 15.7%
CCOc1ccc(CC2c3cc(OCC)c(OCC)cc3CCN2C(=O)c2cc(OC)c(OC)c(OC)c2)cc1OCC (stereo not drawn) | 4.1%
CCOC(=O)c1ccc(N2C(=O)CC(N3CCN(Cc4ccccc4)CC3)C2=O)cc1 (stereo not drawn) | -8.05%
CCOc1ccc(Oc2c(/C=N/NC(N)=O)c(C)nn2-c2ccccc2)cc1 | 8.08%
Fc1ccccc1-c1csc(=Nc2cccnc2)n1CC1CCCO1 (stereo not drawn) | -0.0483%
O=C(c1ccc(F)cc1)C1CCN(C(=O)c2ccccc2)CC1 | 9.16%
Cc1ccc(OCC(O)CN2C(=O)NC(C)(C)C2=O)cc1 (stereo not drawn) | 8.66%
CCOC(=O)C1CN(S(=O)(=O)c2cccc(C(F)(F)F)c2)c2cc(CC(=O)OC)ccc2O1 (stereo not drawn) | 11.5%
CSc1ccccc1NC(=O)C1CCN(S(C)(=O)=O)CC1 | 9.28%
N#CC1(NC(=O)COC(=O)c2cccc(-n3cnnn3)c2)CCCCC1 | 12%
CC(NC(=O)/C(=C/c1ccc2c(c1)OCO2)NC(=O)c1cccc([N+](=O)[O-])c1)C(=O)O (stereo not drawn) | 13.6%
CCC(C(=O)Nc1cnccn1)c1ccccc1 (stereo not drawn) | 0.837%
O=S(=O)(CC(O)COc1ccccc1Cl)c1ccccc1 (stereo not drawn) | 11.2%
CC1CCCCN1Cc1c(O)ccc2c(=O)c(-c3ccc(Cl)cc3)coc12 (stereo not drawn) | -32%
CCC1CCc2[nH]nc(C(=O)O)c2C1 (stereo not drawn) | 5.05%
CC(=O)N1CCc2cc(S(=O)(=O)N3c4ccccc4CC3C)ccc21 (stereo not drawn) | -3.37%
Cl.O=C(CN1C2=NCCN2c2ccccc21)c1ccco1 | -11.9%

Structure (SMILES) | hERG current change (%, negative = inhibition) at 1uM
CC(=O)N1CC[n+]2c(-c3ccc(Cl)cc3)csc21.[Br-] | 8.12%
CC1(C)OC(=O)C(=CNc2cccc(C(=O)O)c2)C(=O)O1 | 15.1%
CCC(C)NC(=O)c1cn(C)c(=O)c2cc(OC)c(OC)cc12 (stereo not drawn) | 4.58%
COc1ccc(C(=O)Nc2nc3c(s2)CCCC3)cc1S(=O)(=O)N1CCCc2ccccc21 | -1.71%
CC(=O)O.Oc1[nH]c2ccccc2c1N=Nc1ncnc2c1oc1ccccc12 | 10.4%
C#CCNC(=O)c1ccc(OCc2ccccc2)cc1Cl | 7.16%
Cn1ncc2c(=O)n(CC(=O)NC34CC5CC(CC(C5)C3)C4)cnc21 | 16.4%
CCC(=O)NC1OC(CO)C(O)C(O)C1O (stereo not drawn) | 15.1%
CC1CCCC(C)N1/N=C/c1ccccc1Br (stereo not drawn) | 3.55%
O=C(CC1C(=O)NCCN1Cc1cccc(F)c1)NC1CCCCC1 (stereo not drawn) | 5.93%
Cc1cc(Br)c2nc3c(c(C(=O)O)c2c1)CCCCC3 | 7.18%
O=C(NCc1cccs1)C1CCN(S(=O)(=O)c2cccs2)CC1 | -8.36%
O=C(NCc1cccc(C(F)(F)F)c1)C1CC(c2ccccc2[N+](=O)[O-])=NO1 (stereo not drawn) | 1.35%
Cc1cccc(Cn2cnc3ccccc32)c1 | 6.04%
COc1ccc(CN(C)C(=O)C23CC4CC(CC(Cl)(C4)C2)C3)c(OC)c1OC | 11.2%
O=C(CS(=O)(=O)c1ccccc1)c1cc2ccccc2oc1=O | 11.6%
COc1cc(C2CC(=O)c3cnc(NC(C)=O)nc3C2)cc(OC)c1OC (stereo not drawn) | 5.17%
COC(=O)C1CCN(C(=O)Cn2nnc(-c3cccc(F)c3)n2)CC1 | 9.67%
CCOC(=O)c1[nH]c(C)c(C(=O)c2cc(F)ccc2F)c1C | -1.1%
N#C/C=C/C(=C\Nc1ccc(Cl)cc1)S(=O)(=O)c1ccccc1 | 14.4%
Cc1cc(C)c(S(=O)(=O)N2CCN(C(=O)c3ccc4c(c3)OCO4)CC2)c(C)c1 | 3.72%
